Hit rate of the full screen: of about 110,000 compounds, about 230 (0.21%) showed an effect of 50% or more. This is one part of the list.
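Also: 30 min substrate incubation versus DMSO and 10 µM JCP410 controls.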

For the assay, the target named is DPAP1 (Plasmodium falciparum, UniProt Q8IIJ9). As to the kind of experiment: primary screen, percent inhibition; read by cleavage of a fluorogenic dipeptide substrate; higher = more effect of the substance. Also noted: species or system P. falciparum D10 trophozoite lysates; single well.
Sequence of DPAP1 (Q8IIJ9 whole entry, looked up): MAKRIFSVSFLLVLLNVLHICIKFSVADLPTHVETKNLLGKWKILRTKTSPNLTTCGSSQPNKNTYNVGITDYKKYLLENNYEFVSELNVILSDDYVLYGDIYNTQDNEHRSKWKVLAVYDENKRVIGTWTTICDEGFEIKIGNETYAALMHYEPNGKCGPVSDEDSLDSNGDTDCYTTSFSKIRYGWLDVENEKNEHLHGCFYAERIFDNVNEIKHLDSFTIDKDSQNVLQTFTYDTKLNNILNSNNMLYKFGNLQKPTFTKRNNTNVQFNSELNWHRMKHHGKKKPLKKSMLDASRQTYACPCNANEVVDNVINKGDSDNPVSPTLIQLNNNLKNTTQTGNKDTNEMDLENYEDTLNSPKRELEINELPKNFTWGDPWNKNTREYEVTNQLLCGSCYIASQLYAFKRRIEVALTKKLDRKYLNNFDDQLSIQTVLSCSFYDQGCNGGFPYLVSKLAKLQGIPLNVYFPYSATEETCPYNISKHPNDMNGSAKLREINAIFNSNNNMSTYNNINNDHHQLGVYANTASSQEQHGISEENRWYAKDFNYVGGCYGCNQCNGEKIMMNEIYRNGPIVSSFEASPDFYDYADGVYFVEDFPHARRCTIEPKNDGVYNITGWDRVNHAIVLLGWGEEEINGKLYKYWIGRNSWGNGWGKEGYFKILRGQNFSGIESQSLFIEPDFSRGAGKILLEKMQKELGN
For the compound `Cc1cccc(OS(=O)(=O)NC(=O)OCC2CCCN3CCCCC23)c1` (centres unmarked), the “% Inhibition @ 10 uM” value was found to be 0.9%.
The same measure for `CCN(CC)CCn1c2ccc(C)cc2c2nc3ccccc3nc21`: 3.36%.
The same measure for `Cc1[nH]c2ccccc2c1C=C1C(=O)N(C)C(=O)N(C)C1=O`: 0.266%; for `Cc1cccc2sc(NC(=O)Cn3cccc3)nc12`: -2.42%.
The same measure for `CCCN(CCC)C(=O)/C(=C/c1cn(CC)c2ccccc12)NC(=O)c1ccccc1`: 1.64%; for `CCOc1ccc(CN2CCCN(C)CC2)cc1`: 4.67%.
With `CC(NC(=O)Cc1ccccc1)c1cc2c(cc1Br)OCCO2` (centres unmarked), the “% Inhibition @ 10 uM” value is reported as -3.26%.
With `COc1cc(NC(=O)c2cccc(OC(F)F)c2)c(OC)cc1Cl`, the “% Inhibition @ 10 uM” value was -2.83%.
To `O=S(=O)(NCC1CCCO1)c1cc(Cl)ccc1Cl` (centres unmarked) belongs 3.48%.
The same measure for `O=c1oc2c3c(ccc2c2c1CCCC2)OCN(c1cccnc1)C3`: 1.27%.
The same measure for `CCC(C)/N=c1/c(-c2ccc(C(C)C)cc2)c(O)c1=O` (centres unmarked): -7.52%; for `Cc1ccc2c(NC(=O)c3ccccc3F)cccc2n1`: -2.91%.
In the case of `O=S1(=O)Oc2cc(S(=O)(=O)N3CCn4c(nc5ccccc54)C3)cc3cccc1c23`, the “% Inhibition @ 10 uM” value was -1.08%.
For `O=C(O)CN1C(=O)c2ccc(Oc3ccc(Cl)cc3)cc2C1=O`, the “% Inhibition @ 10 uM” value came to 4.83%.
The same measure for `CCOc1cc(-n2ccc(C)n2)nc(-c2ccccc2)n1`: 1.59%; for `CC(C)CC(C(=O)NCC#N)c1cccc(-c2ccc(S(=O)(=O)N3CCNCC3)cc2)c1` (centres unmarked): -4.72%; for `CCOC(=O)C1CCN(C2CCC(C)CC2)CC1` (centres unmarked): -0.0953%.
With `c1ccc(CCNc2nc3ccccc3c3nc(-c4ccccc4)nn23)cc1`, the “% Inhibition @ 10 uM” value is listed as -2.42%.
As to `CCOCCCNC(=O)C1CCC(=O)N1CCc1ccccc1` (centres unmarked), the “% Inhibition @ 10 uM” value is recorded as 3.24%.
For the compound `O=C1CCCC(c2cnc3ccccc3c2)C1` (centres unmarked), the “% Inhibition @ 10 uM” value is on record as -0.759%.
To `Cc1nc(/N=C(/NC(=O)c2ccccc2)Nc2ccccc2)nc(O)c1C` belongs -3.92%; to `C1=C(c2ccccc2)CCN(c2nn3nnnc3c3ccccc23)C1`, 0.451%; to `COc1cc2c(cc1OC)C(c1ccccn1)NCC2` (centres unmarked), -3.62%.
The same measure for `COc1cccc(CN2Cc3ccccc3C2=O)c1`: -7.23%; for `Cc1ccccc1-c1nn2c(Cn3cnc4ccccc43)nnc2s1`: 7.5%.
The same measure for `Cc1ccc(C(=O)Nc2nc3ccc(Br)cc3s2)o1`: 1.39%; for `Cc1ccnc(NC2c3ccccc3C(=O)N2Cc2ccccc2)c1` (centres unmarked): -4.74%; for `Cc1ccccc1-c1cc(C(=O)N2CCN(C)CC2)c2ccccc2n1`: -7.9%.
As to `CSc1nc2nc(-c3ccccc3)cc(O)n2n1`, the “% Inhibition @ 10 uM” value is reported as -1.11%.
The same measure for `CCCC(=O)Nc1cccc(NC(=O)COc2cccc3ccccc23)c1`: -11.5%; for `Cc1ccc([N+](=O)[O-])cc1NC(=O)c1cc2ccccc2cc1O`: 0.98%; for `Cc1ccc2nc3c(O)n(CC(=O)NCCC(C)C)ncc-3c2c1`: -1.97%.
To `O=C(Nc1nccs1)c1ccc(COc2ccccc2Cl)cc1` belongs 2.44%; to `COc1ccc2c(c1)C1=NN(C(C)=O)C(c3cccc(F)c3)C1CC2` (centres unmarked), -2.69%; to `NC(=O)CSc1nnnn1-c1cccc(O)c1`, -5.51%.
Take `Clc1cccc(N2CCN(CCCc3ccccc3)CC2)c1`: the “% Inhibition @ 10 uM” value is on record as 0.472%.
Consider `O=C(/C=C/c1ccccc1)N(Cc1ccccc1)Cc1ccccc1`, for which the “% Inhibition @ 10 uM” value was 0.997%.
In the case of `COC(=O)c1sccc1NC(=S)N1CCCCC1C` (centres unmarked), the “% Inhibition @ 10 uM” value is on record as -6.55%.
As for `Cc1cc(C)nc(N2CCN(c3ccccn3)CC2)n1`, the “% Inhibition @ 10 uM” value is listed as -3.08%.
To `CCC(Oc1ccccc1)C(=O)Nc1cccc2ccccc12` (centres unmarked) belongs -1.04%; to `COc1ccc(/C=C2\S/C(=N/c3ccc(C(=O)O)cc3)N(C)C2=O)cc1OC`, 9.79%; to `Cc1ccc(NC(=O)c2ccncc2)cc1`, 4.88%.
The same measure for `CN1CCN(S(=O)(=O)c2csc(C(N)=O)c2)CC1`: 2.18%; for `CC1(C)Cc2nc3sc4c(=O)n(CC(=O)c5ccc(Cl)cc5)cnc4c3cc2CO1`: -2.14%; for `COc1ccc(NC(=O)c2cc(C)cc(C)c2)cc1`: 1.59%.
To `CC(=O)N1C(C(=O)NCc2ccc(C)cc2)CSC12CCN(C)CC2` (centres unmarked) belongs -5.74%.
For the compound `COc1ccc(CN2CCN(S(=O)(=O)c3ccc4[nH]c5c(c4c3)CCCC5)CC2)c(OC)c1OC`, the “% Inhibition @ 10 uM” value is listed as -3.92%.
To `CC1(C#CCN2CCOCC2)CC1(Cl)Cl` (centres unmarked) belongs 1.7%; to `COC(=O)c1cc(CN2CCN(C)CC2)ccc1O`, -2.75%.
The same measure for `NCCSc1nnc2c(n1)[nH]c1ccccc12`: 77.5%; for `Cc1cc(C(=O)NCc2ccc(C)o2)n[nH]1`: 2.28%; for `CCOC(=O)c1c(NC(=O)c2ccccc2F)sc2c1CCN(C(=O)OCC)C2`: 0.997%.
To `CC(=O)c1ccc(NS(=O)(=O)c2ccc(Br)cc2)cc1` belongs 1.28%.
Turning to `CC(C)C[C@H](NC(=O)c1cc(Br)cs1)C(=O)NCC#N`, the “% Inhibition @ 10 uM” value was -1.41%.
To `O=C1N=C(Nc2ccc(Br)cc2)S/C1=C\c1ccccc1O` belongs 14.1%.
As to `CC(C)NC(=O)C12CC3CCC(CC(C3)C1)C2`, the “% Inhibition @ 10 uM” value is recorded as 1.84%.
To `CCN1C(=O)N/C(=C/c2c(OC)cc(OC)cc2OC)C1=O` belongs 5.73%.
To `Cc1c(CNC(=O)c2nn3c(c2Cl)NC(c2ccccc2)CC3C(F)(F)F)cnn1C` (centres unmarked) belongs -0.864%; to `O=C(Nc1ccc(S(=O)(=O)N2CCc3ccccc32)cc1)c1ccccc1Br`, 1.79%; to `CCOc1ccccc1C(=O)Nc1ccc(OC)cc1OC`, 7.48%.
Take `COc1ccc(C2C(C(=O)c3ccc(C)cc3)=C(O)C(=O)N2Cc2ccccc2)cc1OC` (centres unmarked): the “% Inhibition @ 10 uM” value is listed as -1.93%.
Regarding `CCOc1ccc(-c2c(C)nn3c(O)c(N4CCC(C)CC4)c(C)nc23)cc1OCC`, the “% Inhibition @ 10 uM” value came to 0.953%.
As for `CCOC(=O)N1CCN(C2CCC(c3ccccc3)CC2)CC1` (centres unmarked), the “% Inhibition @ 10 uM” value was -3.6%.
Take `Cc1c(C(=O)N2CCCCC2)sc(NC(=O)c2ccc(Br)cc2)c1C#N`: the “% Inhibition @ 10 uM” value was found to be 1.01%.
The same measure for `Fc1ccc(-c2csc(N3N=C(c4ccccc4)CC3c3ccccc3)n2)cc1` (centres unmarked): -1.48%.
The same measure for `OCCSCCc1ccncc1`: -2.51%; for `O=C(CSc1ncnc2[nH]cnc12)N1CCN(c2ccccc2)CC1`: -4.49%.
To `O=C(O)c1ccc2c(c1)C(=O)N(c1ccc3c(c1)C(=O)N(c1ccccc1)C3=O)C2=O` belongs 7.77%.

Source of the values: PMC6919601, “Identification of Plasmodium dipeptidyl aminopeptidase allosteric inhibitors by high throughput screening” (PLoS ONE, 2019).
